# Among all 340,000 compounds or so, about 12,000 (3.5%) were called active. Inconclusive results, whose numbers are uncertain, are shown with a selection of clear calls. The call rests on the fitted dose curve; in most records, active means well fitted inhibition curve with a large enough effect; inconclusive means small, poorly fitted or top-dose-only effect, or another doubt; inactive means no such curve, though single readings can be large or run the other way. Potencies of inconclusive entries are left out as doubtful fits.
# Assay: qHTS Assay for Inhibitors of Hepatitis C Virus (HCV)
# Settings: Huh7.5.1 HCVcc-Cre (HCVcc is cell-culture hepatitis C virus) infection, luciferase reporter, 44 h; series mostly up to 41.8 µM
# In short: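 A cell-based infection assay in which seeded cells (1,000 per well) receive test compound after 4 h, are inoculated with HCVcc-Cre at approximately 0.5 moi, and are incubated 44 h before luminescence detection.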
# Potency means the concentration at half of the fitted maximal effect; tags describe the fitted curve by direction and shape.
row,SMILES,Potency
1,COc1cc(/C=C2\SC(=S)N(Nc3ncc(C(F)(F)F)cc3Cl)C2=O)cc(OC)c1OC,"inconclusive [inhibitor, single point]"
2,COc1cc(NC(=O)C(C)Oc2ccccc2)cc(OC)c1 (stereo not drawn),"inconclusive [inhibitor, single point]"
3,CC(NC(=S)NC1CCCCC1)c1ccccc1 (stereo not drawn),"inconclusive [inhibitor, single point]"
4,CC(C)CCNC(=O)c1ccc2c(c1)N(Cc1ccccc1)C(=O)CS2=O (stereo not drawn),"inconclusive [inhibitor, single point]"
5,Cc1nn(C)c(Cl)c1CN1CCCC(CO)(Cc2ccccc2)C1 (stereo not drawn),"inconclusive [inhibitor, single point]"
6,COC(=O)c1sccc1NC(=O)c1cc(-c2cc(C)ccc2C)nc2ccccc12,inactive
7,O=C(NCC1CCCO1)c1nn2c(C(F)(F)F)cc(-c3cccs3)nc2c1Cl (stereo not drawn),"inconclusive [inhibitor, single point]"
8,CC(=O)c1c(C)[nH]c(C(=O)CN2C(=O)NC(C)(CCC(C)C)C2=O)c1C (stereo not drawn),"inconclusive [inhibitor, single point]"
9,COc1cccc(CNC(=O)c2cnc(-c3ccccn3)nc2C(F)(F)F)c1,inactive
10,COc1cccc(C2=NOC(C(=O)N3CCN(c4ccccc4)CC3)C2)c1OC (stereo not drawn),inactive
11,Cn1c(SCC(=O)Nc2ccc3nc(SCC(=O)N4CCCC4)sc3c2)nnc1-c1ccccc1,inactive
12,O=C(NC1=NCCS1)c1nc(-c2ccccc2)n(-c2ccccc2)n1,"inconclusive [inhibitor, single point]"
13,COc1ccc(NS(=O)(=O)c2cc(NC(=O)C3CC3)ccc2N2CCCCC2)cc1,active: 11.2 µM
14,O=C(NNc1c2ccccc2nc2ccccc12)c1ccc(O)cc1,active: 10 µM
15,CC1CCN(S(=O)(=O)c2cn(CC(=O)N3CCN(c4cccc(C(F)(F)F)c4)CC3)cn2)CC1,active: 11.2 µM
16,CC(C)Cc1cc(C(=O)Nc2ccccc2)c2ccccc2n1,inactive
17,NC(N)=N/N=C/c1cccc([N+](=O)[O-])c1O,inactive
18,Cc1ccc(-n2c(CCc3nc4ccccc4[nH]3)n[nH]c2=S)cc1,inactive
19,COc1ccccc1Nc1nnc(SCC(=O)NC2CC2)s1,inactive
20,Cc1cc(C)n(CC(O)CN(c2ccccc2)S(=O)(=O)c2ccc3ccccc3c2)n1 (stereo not drawn),"inconclusive [inhibitor, partial curve, poor fit]"
21,CCN(CC)CCNCC(O)(c1ccc(Cl)cc1)c1ccc(Cl)cc1,"inconclusive [inhibitor, partial curve, poor fit]"
22,COc1ccc(C(=O)NCCNC(=O)c2ccc(OC)cc2)cc1,inactive
23,C=CCc1cccc(/C=N/NC(=O)c2ccc3nc[nH]c3c2)c1O,"inconclusive [inhibitor, single point]"
24,C=C[C@@H]1c2ccccc2N(S(=O)(=O)c2ccc(C)cc2)[C@H](c2ccc(OC(C)=O)cc2)C1(C#N)C#N,"inconclusive [inhibitor, partial curve]"

row,SMILES,Potency
1,CCOC(=O)C1(Cc2ccccc2C(F)(F)F)CCN(C2CCN(C(C)C)CC2)CC1,active: 3.16 µM
2,O=C(NNC(=O)c1ccc[nH]1)Nc1cccc(C(F)(F)F)c1,inactive
3,CCCCCCCCCC(=O)N/N=C/c1ccc(C)s1,inactive
4,CN1CCN(c2ccc(Cl)cc2NC(=O)c2ccc(S(=O)(=O)N3CCCCCC3)cc2)CC1,"inconclusive [inhibitor, single point]"
5,Cc1cccc(NC(=O)C2COc3ccccc3O2)n1 (stereo not drawn),inactive
6,C=CCN1C(=O)CSc2ccc(C(=O)NCCC3=CCCCC3)cc21,"inconclusive [inhibitor, single point]"
7,Cc1ccc(C(=O)c2coc3ccc(O)cc23)cc1,inactive
8,CCOc1cccc(C(=O)Nc2ccc(NC(=O)c3cc4ccccc4o3)c(OC)c2)c1,"inconclusive [inhibitor, partial curve]"
9,CN(C)c1ccnc(Oc2ccc(C(C)(C)C)cc2)c1C#N,"inconclusive [inhibitor, single point]"
10,CC(OC(=O)c1ccccc1C(=O)O)c1ccccc1 (stereo not drawn),inactive
11,COc1ccccc1OCCn1nnc2ccccc21,inactive
12,COc1cccc(-c2cc(C(F)(F)F)nc(-n3cccn3)n2)c1,"inconclusive [inhibitor, partial curve]"
13,Cc1ccc(C23CC4CC(CC(NC(=O)N5CCN(C)CC5)(C4)C2)C3)cc1,active: 12.6 µM
14,COc1ccccc1N1CCN(C(=O)c2ccc(Cn3c(=S)[nH]c4cc5c(cc4c3=O)OCO5)cc2)CC1,"inconclusive [inhibitor, partial curve]"
15,O=C(CN(Cc1ccco1)Cc1cccs1)N1CCN(S(=O)(=O)c2cccc(F)c2)CC1,"inconclusive [inhibitor, single point]"
16,CC(=O)Nc1ccc(S(=O)(=O)N2CCN(C(=O)C3COc4ccccc4O3)CC2)cc1 (stereo not drawn),"inconclusive [inhibitor, single point]"
17,O=C(Nc1ccccc1Cl)Nc1cccnc1Cl,"inconclusive [inhibitor, partial curve]"
18,C/C(=N\NC(=O)c1sccc1-n1cccc1)c1cccs1,inactive
19,Cc1ccc(C(=O)Nc2ccc(C)c(S(=O)(=O)N(C)C)c2)s1,"inconclusive [inhibitor, single point]"
20,Nc1nccnc1C(=O)OCC(=O)NCCc1ccc(S(N)(=O)=O)cc1,inactive
21,CC(C)N(C(=O)CSc1nc2ccccc2n1-c1ccccc1)C(C)C,"inconclusive [inhibitor, single point]"
22,Cc1ccc(NC(=O)CCn2c(=O)[nH]c3ccsc3c2=O)cc1F,inactive
23,O=C(c1cc(C2CC2)nc2ccccc12)N1N=C(C(F)F)CC1(O)C(F)F (stereo not drawn),"inconclusive [inhibitor, single point]"
24,C/C(CC(=O)Nc1ccccn1)=N\NC(=O)C(=O)Nc1cccc(C)c1,inactive
